Experimental findings from patent US20240140957A1, “BRIDGED COMPOUNDS AS KRAS G12D INHIBITOR AND DEGRADER AND THE USE THEREOF” (BeiGene Switzerland GmbH, priority 2021, published 2024) are described below.

The experiment deals with KRAS G12D HiBiT in HEK293 KRAS-G12D NanoLuc cell pool (Homo sapiens, UniProt P01116, G12D). Nature of the experiment: KRAS G12D NanoLuc Assay. To be noted: for Dmax: HEK293, read-out: KRAS G12D NanoLuc Dmax; for DC50: read-out: KRAS G12D NanoLuc DC50, HEK293 KRAS-G12D NanoLuc cell pool, 24 h compound treatment. As for the experimental part:
HEK293 KRAS-G12D) NanoLuc cell pool was used in this study. The cells were stable expressing KRAS G12D HiBiT and LgBiT. Cells were maintained in DMEM supplemented with 1000 fetal bovine serum (Thermo Fisher), 50 units/mL penicillin and streptomycin (Thermo Fisher) and kept at 37° C. in a humidified atmosphere of 5% CO2 in air. Cells were reinstated from frozen stocks that were laid down within 30 passages from the cell pool was constructed. 20000 cells per well were seeded a 96-well White with Clear Flat bottom plate for 4 h. Cells were treated with a 10-point dilution series. The final compound concentration is from 0 to 10 μM. After 24 h compound treatment, added 20 μL of CellTiter-Fluor reagent (Promega) to plates, shook for 2 min, incubated at least 30 min in 37° C. Added 25 μL of NanoGlo Live cell reagent (Promega) to the same plate. Shook by mini-shaker for 5 min. Measure Luminescence and Fluorescence (380-400 nmEx/505 nmEm) signals immediately using a PHERAstar FSX reader (BMG Labtech). DC50 determination was performed by filling the curve of percent inhibition versus the log of the inhibitor concentration using Excel and GraphPad Prism 8.

Consider `Cc1ncsc1-c1ccc([C@H](C)NC(=O)[C@@H]2C[C@@H](O)CN2C(=O)[C@@H](NC(=O)COC2CCN(CC(C)Oc3nc(N4CC5CCC(C4)N5)c4cc(Cl)c(-c5ccc(F)c6sc(N)nc56)c(F)c4n3)CC2)C(C)(C)C)cc1` (stereo partly drawn) [Example E44, (2S,4R)-1-((2S)-2-(2-((1-(2-((7-(2-amino-7-fluorobenzo[d]thiazol-4-yl)-4-(3,8-diazabicyclo[3.2.1]octan-3-yl)-6-chloro-8-fluoroquinazolin-2-yl)oxy)propyl)piperidin-4-yl)oxy)acetamido)-3,3-dimethylbutanoyl)-4-hydroxy-N—((S)-1-(4-(4-methylthiazol-5-yl)phenyl)ethyl)pyrrolidine-2-carboxamide], for which the Dmax came to 65% and the DC50 was 975 nM.

As to `Cc1ncsc1-c1ccc([C@H](C)NC(=O)[C@@H]2C[C@@H](O)CN2C(=O)[C@@H](NC(=O)CCCCCCN2CCC[C@H]2COc2nc(N3C4CCC3CNC4)c3cc(Cl)c(-c4ccc(F)c5sc(N)nc45)c(F)c3n2)C(C)(C)C)cc1` [Example E45, (2S,4R)-1-((2S)-2-(7-((2S)-2-(((7-(2-amino-7-fluorobenzo[d]thiazol-4-yl)-4-(3,8-diazabicyclo[3.2.1]octan-8-yl)-6-chloro-8-fluoroquinazolin-2-yl)oxy)methyl)pyrrolidin-1-yl)heptanamido)-3,3-dimethylbutanoyl)-4-hydroxy-N—((S)-1-(4-(4-methylthiazol-5-yl)phenyl)ethyl)pyrrolidine-2-carboxamide], the Dmax is 73% and the DC50 is 824 nM.

Regarding `Cc1ncsc1-c1ccc([C@H](C)NC(=O)[C@@H]2C[C@@H](O)CN2C(=O)[C@@H](NC(=O)CCCCCCN2CCC[C@H]2COc2nc(N3CC4CCC(C3)N4)c3cc(Cl)c(-c4ccc(F)c5sc(N)nc45)c(F)c3n2)C(C)(C)C)cc1` [Example E46, (2S,4R)-1-((2S)-2-(7-((2S)-2-(((7-(2-amino-7-fluorobenzo[d]thiazol-4-yl)-4-(3,8-diazabicyclo[3.2.1]octan-3-yl)-6-chloro-8-fluoroquinazolin-2-yl)oxy)methyl)pyrrolidin-1-yl)heptanamido)-3,3-dimethylbutanoyl)-4-hydroxy-N—((S)-1-(4-(4-methylthiazol-5-yl)phenyl)ethyl)pyrrolidine-2-carboxamide], the Dmax is 79% and the DC50 is 432 nM.

Regarding `Cc1ncsc1-c1ccc([C@H](C)NC(=O)[C@@H]2C[C@@H](O)CN2C(=O)[C@@H](NC(=O)CCCC2CCN(C[C@H](C)Oc3nc(N4CC5CCC(C4)N5)c4cc(Cl)c(-c5ccc(F)c6sc(N)nc56)c(F)c4n3)CC2)C(C)(C)C)cc1` [Example E47, (2S,4R)-1-((2S)-2-(4-(1-((2S)-2-((7-(2-amino-7-fluorobenzo[d]thiazol-4-yl)-4-(3,8-diazabicyclo[3.2.1]octan-3-yl)-6-chloro-8-fluoroquinazolin-2-yl)oxy)propyl)piperidin-4-yl)butanamido)-3,3-dimethylbutanoyl)-4-hydroxy-N—((S)-1-(4-(4-methylthiazol-5-yl)phenyl)ethyl)pyrrolidine-2-carboxamide], the Dmax was 74% and the DC50 amounted to 622 nM.

For `Cc1cc(N)nc(-c2c(Cl)cc3c(N4CC5CCC(C4)N5)nc(OC[C@@H]4CCCN4CCCCCCC(=O)N[C@H](C(=O)N4C[C@H](O)C[C@H]4C(=O)N[C@@H](C)c4ccc(-c5scnc5C)cc4)C(C)(C)C)nc3c2F)c1C(F)(F)F` [Example E48, (2S,4R)-1-((2S)-2-(7-((2S)-2-(((7-(6-amino-4-methyl-3-(trifluoromethyl)pyridin-2-yl)-4-(3,8-diazabicyclo[3.2.1]octan-3-yl)-6-chloro-8-fluoroquinazolin-2-yl)oxy)methyl)pyrrolidin-1-yl)heptanamido)-3,3-dimethylbutanoyl)-4-hydroxy-N—((S)-1-(4-(4-methylthiazol-5-yl)phenyl)ethyl)pyrrolidine-2-carboxamide], the Dmax was 77% and the DC50 stood at 642 nM.
